Measurements: patent US20100095387A1, “METHODS AND REAGENTS FOR SCREENING NEW DRUGS AND FOR TREATING ION PUMP ASSOCIATED DISORDERS AND DISEASES” (priority 2005, published 2010)

Biological target: T1, endogenous agrin-α3Na+/K+-ATPase complex (Mus musculus, UniProt Q6PIC6)
T1 construct: a 110 kDa band characteristic of the native α3Na+/K+-ATPase; endogenous in cells; host or cells: cultured mouse cortical neurons; also cortical slices from 12-day-old mice
Protocol: Membrane impermeant chemical cross-linking agents BS^3 and DMA were used to stabilize the bond between agrin and its binding sites on cell surface membranes. Cultured neurons were washed briefly in PBS containing 10 mM EDTA followed by preincubation with one or more agrin fragment in PBS^2+ for 30 minutes at room temperature and then cooled on ice prior to addition of a 10× solution of cross-linking agent to a final concentration of 0.1 mM. The cross-linking reaction was allowed to proceed for 30 minutes after which any unreacted cross-linker was quenched and removed by washing with ice cold PBS^2+ containing 50 mM ethanolamine. For immunoblot analysis, cells were scraped into ice-cold TI buffer (20 mM Tris, pH 7.4; 10 mM EDTA; protease inhibitors (Sigma, P8340)) then Dounce homogenized and membrane fraction recovered by centrifugation. For the immunoprecipitation studies, cells were scraped and homogenized in TI buffer containing 150 mM NaCl and 0.5% Triton X-100. Cell extracts were cleared by centrifugation and aliquots of the detergent soluble fraction incubated with the appropriate antibody at 4° C. overnight. Antigen-antibody complexes were precipitated with either protein A or protein G and resuspended in SDS-PAGE sample buffer for immunoblot analysis. […]

B1: C-Ag15: 15-kD COOH-terminal fragment of agrin created by deleting 37 amino acids from the NH2 terminus of C-Ag20, SEQ. ID NO. 3 (protein)
chain: MDPWIGKAAERADYMALAIVDGHLQLSYDLASQPVVLRSTVKVNTNRWLRVRAHREHREGSLQVGNEAPVTSSSPLGATQLDTDGALWLGGLQKLPVGQPLPKAYGTGFVGCLRNVVGHRQLHLLEDAVTKPELRPCPTLNSKLGPEQKLISEEDLNSAVDHHHHHH
modifications: Synthetically produced sequence
formation of endogenous agrin-α3Na+/K+-ATPase complex: blocked
